# Laboratory results taken from a collection of fitness landscapes (doi:10.1126/science.1257360).
# This is one part of the list.
# B1: PhoQ; a variant is named by its letters at X, in order, P23837 (parent)
# chain: MKKLLRLFFPLSLRVRFLLATAAVVLVLSLAYGMVALIGYSVSFDKTTFRLLRGESNLFYTLAKWENNKLHVELPENIDKQSPTMTLIYDENGQLLWAQRDVPWLMKMIQPDWLKSNGFHEIEADVNDTSLLLSGDHSIQQQLQEVREDDDDAEMTHSVAVNVYPATSRMPKLTIVVVDTIPVELKSSYMVWSWFIYVLSANLLLVIPLLWVAAWWSLRPIEALAKEVRELEEHNRELLNPATTRELTSLVRNLNRLLKSERERYDKYRTTLTDLTHSLKTPLXXLQXXLRSLRSEKMSVSDAEPVMLEQISRISQQIGYYLHRASMRGGTLLSRELHPVAPLLDNLTSALNKVYQRKGVNISLDISPEISFVGEQNDFVEVMGNVLDNACKYCLEFVEISARQTDEHLYIVVEDDGPGIPLSKREVIFDRGQRVDTLRPGQGVGLAVAREITEQYEGKIVAGESMLGGARMEVIFGRQHSAPKDE
# Variants of: B1
# Assay: enrichment ratio after two sorts for PhoP signalling (ratio (wild type AVST 3.29)); higher = more functional
# Conditions: with PhoP (E. coli)
row,Variant,enrichment ratio
1,IPLR,≤ 0.25
2,LIWH,1.3
3,SNPG,≤ 0.25
4,YNKQ,≤ 0.25
5,GVTL,8.09
6,YRER,≤ 0.25
7,DPRS,≤ 0.25
8,LFES,≤ 0.25
9,DGLE,≤ 0.25
10,MLIF,≤ 0.25
11,NTNY,≤ 0.25
12,TAPY,≤ 0.25
13,YMTF,≤ 0.25
14,FLHS,≤ 0.25
15,LHRA,≤ 0.25
16,TDSQ,5.71
17,CLVG,≤ 0.25
18,SYAS,≤ 0.25
19,CVLA,≤ 0.25
20,VMWG,≤ 0.25
21,DYAD,≤ 0.25
22,STVP,≤ 0.25
23,AGIF,7.16
24,VGGT,≤ 0.25
25,QFIG,≤ 0.25

row,Variant,enrichment ratio
1,IWSF,≤ 0.25
2,ASQQ,4.99
3,EMSK,≤ 0.25
4,QKHV,≤ 0.25
5,IIWM,≤ 0.25
6,GSCW,≤ 0.25
7,KKNG,≤ 0.25
8,GPHR,≤ 0.25
9,QGKS,≤ 0.25
10,IGVF,0.718
11,VPRY,≤ 0.25
12,VRTW,0.299
13,DKEF,≤ 0.25
14,RTDP,≤ 0.25
15,ENDC,≤ 0.25
16,FAGA,≤ 0.25
17,RYDA,≤ 0.25
18,QIPR,≤ 0.25
19,IAYV,≤ 0.25
20,HNLR,≤ 0.25
21,RWIR,≤ 0.25
22,TICQ,6.36
23,QFHY,≤ 0.25
24,GFDV,≤ 0.25
25,YTFT,≤ 0.25

row,Variant,enrichment ratio
1,DGYF,≤ 0.25
2,HTGL,1.52
3,GEST,16.9
4,AQLT,8.16
5,YFSH,≤ 0.25
6,IQQH,≤ 0.25
7,YMLT,≤ 0.25
8,YRRM,≤ 0.25
9,FAQH,≤ 0.25
10,FKIM,≤ 0.25
11,GNWW,≤ 0.25
12,TFSM,4.91
13,FSVV,8.92
14,VCCF,≤ 0.25
15,SCKC,≤ 0.25
16,RTVD,≤ 0.25
17,KCTI,≤ 0.25
18,MYYM,≤ 0.25
19,VQSM,≤ 0.25
20,KTFR,≤ 0.25
21,PTCM,≤ 0.25
22,WMPV,≤ 0.25
23,DQNI,≤ 0.25
24,INPR,≤ 0.25
25,EAVL,≤ 0.25

row,Variant,enrichment ratio
1,LFEQ,≤ 0.25
2,LCSM,≤ 0.25
3,QFQA,≤ 0.25
4,QNYQ,≤ 0.25
5,WCYA,≤ 0.25
6,LMAM,≤ 0.25
7,HHVY,≤ 0.25
8,DHGC,≤ 0.25
9,FPYE,≤ 0.25
10,AYVN,≤ 0.25
11,WKTC,≤ 0.25
12,PIVN,≤ 0.25
13,RFSM,≤ 0.25
14,SSLA,7.43
15,VPHR,≤ 0.25
16,NYPK,≤ 0.25
17,TSMG,13
18,LPMC,≤ 0.25
19,FHYQ,≤ 0.25
20,KHVC,≤ 0.25
21,KSLS,≤ 0.25
22,WSNV,≤ 0.25
23,HDVT,≤ 0.25
24,LGTK,≤ 0.25
25,EITP,≤ 0.25

row,Variant,enrichment ratio
1,PTHD,≤ 0.25
2,HNRE,≤ 0.25
3,TQRS,≤ 0.25
4,GLCK,≤ 0.25
5,MYHW,≤ 0.25
6,NYSY,≤ 0.25
7,GITE,≤ 0.25
8,VIWI,≤ 0.25
9,APEN,≤ 0.25
10,WNKF,≤ 0.25
11,SELQ,27.9
12,QIFS,≤ 0.25
13,AVSH,12.4
14,KDHH,≤ 0.25
15,FHCS,≤ 0.25
16,WRKS,≤ 0.25
17,HFIG,≤ 0.25
18,STEE,≤ 0.25
19,QKVY,≤ 0.25
20,LHRH,≤ 0.25
21,HMRQ,≤ 0.25
22,HCDY,≤ 0.25
23,GVRV,≤ 0.25
24,VCAY,≤ 0.25
25,LEEA,≤ 0.25

row,Variant,enrichment ratio
1,EDPG,≤ 0.25
2,QEHR,≤ 0.25
3,WKAS,≤ 0.25
4,ASQC,≤ 0.25
5,LVIS,≤ 0.25
6,NFPW,≤ 0.25
7,ANRM,≤ 0.25
8,TCIM,0.447
9,HESW,≤ 0.25
10,KESH,≤ 0.25
11,IHMI,≤ 0.25
12,GIKG,≤ 0.25
13,SGFH,≤ 0.25
14,KKRL,≤ 0.25
15,PKDT,≤ 0.25
16,FMSN,≤ 0.25
17,GRRW,≤ 0.25
18,RTKR,≤ 0.25
19,NSDD,≤ 0.25
20,RNVK,≤ 0.25
21,GQIK,≤ 0.25
22,KSFY,≤ 0.25
23,VYIN,≤ 0.25
24,DLNC,≤ 0.25
25,KLCR,≤ 0.25

row,Variant,enrichment ratio
1,YLMN,0.543
2,IDTD,≤ 0.25
3,YYMF,≤ 0.25
4,HWNG,≤ 0.25
5,ITFC,≤ 0.25
6,MHLV,≤ 0.25
7,RWTA,≤ 0.25
8,AQGM,13.3
9,KNFR,≤ 0.25
10,GVSP,≤ 0.25
11,HLGV,≤ 0.25
12,HPLR,≤ 0.25
13,AWGR,≤ 0.25
14,RFVS,≤ 0.25
15,MYML,≤ 0.25
16,PYYA,≤ 0.25
17,AATT,5.04
18,FAVS,≤ 0.25
19,FASS,≤ 0.25
20,WHAM,≤ 0.25
21,YNLH,≤ 0.25
22,VIDF,≤ 0.25
23,RCCC,≤ 0.25
24,GWIC,≤ 0.25
25,TCSC,12.3

row,Variant,enrichment ratio
1,VYHS,≤ 0.25
2,AASL,6.87
3,VNRG,≤ 0.25
4,AQYL,≤ 0.25
5,FRSQ,≤ 0.25
6,AFSL,≤ 0.25
7,VCPN,≤ 0.25
8,MYLM,≤ 0.25
9,FVFP,≤ 0.25
10,MEDS,≤ 0.25
11,QNFL,≤ 0.25
12,MNLK,≤ 0.25
13,LTYV,≤ 0.25
14,NKFK,≤ 0.25
15,VRLI,≤ 0.25
16,LMWC,≤ 0.25
17,RMVH,≤ 0.25
18,FLKM,≤ 0.25
19,THMT,≤ 0.25
20,VTDG,≤ 0.25
